Test results reported in ChEMBL document CHEMBL4888484, “Replenishing the malaria drug discovery pipeline: Screening and hit evaluation of the MMV Hit Generation Library 1 (HGL1) against asexual blood stage Plasmodium falciparum ,using a nano luciferase reporter read-out” (2022).
Among all 150,000 compounds or so, about 540 (0.36%) showed an effect of 50% or more. The list shows a part of the results.

These molecules were tested on Plasmodium falciparum (assay: Primary screen in NF54 nanoGlo assay, in single point, at 2uM, 72h; a lower Z score goes with more inhibition). Details: timepoint 72 hour.
Assay type: functional, Erythrocyte
With `O=C(Cc1nnc(-c2ccncc2)o1)Nc1ccccc1` the “% Inhibition” value was -10% and the Z score was 1.88. With `O=C(N[C@H]1CCOC[C@@H]1Oc1cccc(F)c1)c1cnc2c(c1)CCC2` the “% Inhibition” value was 2% and the Z score was -0.27. With `O=C(Nc1ccc(F)cc1F)N[C@H]1C[C@H]2C(=O)NC[C@@H](CCC(=O)N3CCC(O)CC3)N2C1` the “% Inhibition” value was 3% and the Z score was -0.41. For `Cc1cnc([C@H](C)NC(=O)N2CCC(CCc3ccc(F)cc3F)CC2)o1`, the “% Inhibition” value was -7% and the Z score was 1.48. With `COC[C@H]1[C@H](NC(=O)c2csc(C(C)C)n2)[C@H]2CCO[C@H]21` the “% Inhibition” value was -18% and the Z score was 2.79. With `Cc1ccc(N2CCN(c3nc4c(c(N5CCOCC5)n3)CN(C(=O)c3ccco3)CC4)CC2)cc1C` the “% Inhibition” value was -9% and the Z score was 1.31. With `Cc1ccc(F)cc1NC(=O)CCc1c(C)nn(-c2ccc3nnc(C)n3n2)c1C` the “% Inhibition” value was -13% and the Z score was 1.6. In the case of `CCCc1nc(N2Cc3cnn(CCO)c3C2)no1`, the “% Inhibition” value is reported as 2% and the Z score is reported as -0.3. For `CCN(CC)C(=O)Cn1ccc2ccc(-c3nnc(C)o3)cc21`, the “% Inhibition” value was -2% and the Z score was 0.19. With `CCC(=O)N1c2ccc(S(=O)(=O)N3CCCCC3)cc2C[C@H]1C(=O)NCc1ccco1` the “% Inhibition” value was -4% and the Z score was 0.54. In the case of `Cc1cc(C)n(CCN(C)Cc2cc(=O)n3ccsc3n2)n1`, the “% Inhibition” value is reported as 2% and the Z score is reported as -0.32. With `Cc1c[nH]c(CNc2cc(C3CC3)ncn2)n1` the “% Inhibition” value was 1% and the Z score was -0.22. In the case of `COCCN1CC2(CCC1=O)CCN(C(=O)[C@@H]1CCc3ccccc31)CC2`, the “% Inhibition” value is reported as -23% and the Z score is reported as 2.88. For `COc1ccc(F)c(F)c1CN1C[C@@H]2NCCO[C@H]2C1`, the “% Inhibition” value was -10% and the Z score was 1.24. With `Cc1csc(NC(=O)c2cc(-c3ccccc3)on2)n1` the “% Inhibition” value was -6% and the Z score was 1.01. In the case of `C=CC[C@]1(CO)CCCN(c2cc(C3CC3)ncn2)C1`, the “% Inhibition” value is reported as -16% and the Z score is reported as 3.14. In the case of `O=C(c1cc(-c2ccco2)n[nH]1)N1CCC(Oc2nncs2)CC1`, the “% Inhibition” value is reported as 20% and the Z score is reported as -2.49. `O=C(C1CC1c1ccccc1)N(c1ccc(F)cn1)C1CCOCC1` (stereo not drawn) was tested, and the “% Inhibition” value was 44% and the Z score was -6.09. `COc1ccc(CCNC(=O)c2cc(-c3cc(Cl)ccc3Cl)oc2C)cc1OC` was tested, and the “% Inhibition” value was -8% and the Z score was 1.01. With `O=C(Nc1ccc(-n2cc[nH]c2=O)cc1)c1ccc2ccccc2n1` the “% Inhibition” value was -5% and the Z score was 0.45. `CC[C@@H](C(=O)NC1CCN(C)CC1)N(c1cc(Cl)ccc1C)S(C)(=O)=O` was tested, and the “% Inhibition” value was -6% and the Z score was 1.12. For `O=C(c1n[nH]c2c1CCC2)N1CCC(n2cc(-c3ccsc3)nn2)CC1`, the “% Inhibition” value was -26% and the Z score was 3.85. For `COc1cccc(-c2nc(C)c(C(=O)Nc3nc(C(C)C)n[nH]3)s2)c1`, the “% Inhibition” value was 68% and the Z score was -7.28. For `COc1cccc(Nc2ncnc3sc(C)c(S(=O)(=O)N4CCCCC4)c23)c1`, the “% Inhibition” value was 0% and the Z score was 0.06. With `Cc1cc2nc(C(=O)NCCc3c[nH]c4ccccc34)cc(C)n2n1` the “% Inhibition” value was -6% and the Z score was 1.11. In the case of `OC1(c2nc(Cc3csc(-c4ccccc4)n3)no2)CCCC1`, the “% Inhibition” value is reported as -4% and the Z score is reported as 0.38. `COCC(O)CNC(c1ccc(OC)cc1F)C(C)C` (stereo not drawn) was tested, and the “% Inhibition” value was 10% and the Z score was -1.29. With `COc1ccc(CCC(=O)N2CCC[C@@H]2C(=O)NCCc2csc(C)n2)cc1` the “% Inhibition” value was -5% and the Z score was 0.66. With `Cc1cc(-c2noc(COC(C)(C)C(F)(F)F)n2)cc2nc[nH]c12` the “% Inhibition” value was -13% and the Z score was 1.19. `Cc1cccc(CC(=O)N2C3CCC2Cn2c(n[nH]c2=O)C3)c1` (stereo not drawn) was tested, and the “% Inhibition” value was 4% and the Z score was -0.52. In the case of `Cn1cnnc1NC(=O)C1(Cc2cccc(F)c2)CCCCC1`, the “% Inhibition” value is reported as -2% and the Z score is reported as 0.42. For `COc1cccc(CN2C[C@@H](C(=O)NCc3cccnc3)CC2=O)c1`, the “% Inhibition” value was -7% and the Z score was 0.79. In the case of `CN=C(NCCC1CC1)NC1CCCC1`, the “% Inhibition” value is reported as -3% and the Z score is reported as 0.29. `Cc1ccccc1Cn1nc(CC(N)=O)nc1CCc1cnccn1` was tested, and the “% Inhibition” value was -14% and the Z score was 1.72. `CC1CN(C(=O)C2CCOCC2)CCC1c1ccccc1` (stereo not drawn) was tested, and the “% Inhibition” value was 4% and the Z score was -0.42. With `Cc1[nH][nH]c(=O)c1[C@H](CC(N)=O)c1ccc2ncccc2c1` the “% Inhibition” value was -6% and the Z score was 0.82. `O=C([C@@H]1CN(c2ncnc3[nH]ccc23)CCN1)N1CCCC1` was tested, and the “% Inhibition” value was 12% and the Z score was -1.11. For `CCCCCN1CC(=O)N[C@@H]1c1ccc(C)cn1`, the “% Inhibition” value was -7% and the Z score was 0.77. For `CCc1cc(C(=O)N2CC(=O)N(CCC(=O)OC)C[C@H](OCc3cccc(OC)c3)C2)n(C)n1`, the “% Inhibition” value was -4% and the Z score was 0.75. For `Cc1ccc2c(c1)CN(C(=O)Cc1c(C)n[nH]c1C)C(C)(C)C2`, the “% Inhibition” value was -6% and the Z score was 1.04. `CCc1nnc2n1CCN(C(=O)[C@@H]1COc3ccccc3O1)C2` was tested, and the “% Inhibition” value was -8% and the Z score was 1.37. For `Cc1nc(N2CCCCC2)n(CCN2CCOCC2)c(=O)c1C`, the “% Inhibition” value was 6% and the Z score was -0.62. In the case of `COc1ccc(C(=O)N2c3cc(CNC(=O)c4ccc(C)cc4)ccc3C[C@@H]2C)cc1`, the “% Inhibition” value is reported as 18% and the Z score is reported as -2.09. With `CCN1C[C@@H](Nc2ncnc3ccc(F)cc23)CC1=O` the “% Inhibition” value was -6% and the Z score was 1.24. `O=C(CCc1nnc2ccc(N3CCC4(CC3)OCCO4)nn12)Nc1ccccn1` was tested, and the “% Inhibition” value was -18% and the Z score was 2.42. In the case of `COc1ccc(-c2ccccc2NC(=O)N2C[C@@H]3CC[C@H](C2)C(=O)N3)cc1`, the “% Inhibition” value is reported as 2% and the Z score is reported as -0.15. For `Cc1cnn(Cc2nccn2C(F)F)c1`, the “% Inhibition” value was 3% and the Z score was -0.36. For `CC[C@H](C)Cc1nc(Cc2c(C)noc2C)n(CCO)n1`, the “% Inhibition” value was -9% and the Z score was 0.92. `Cc1csc([C@H](C)NC(=O)NCC2(OCCO)CCOCC2)n1` was tested, and the “% Inhibition” value was -2% and the Z score was 0.26. In the case of `O=C(Nc1ccc(OC(F)F)cn1)N1CCN2C(=O)OCC[C@H]2C1`, the “% Inhibition” value is reported as 7% and the Z score is reported as -1.36. With `O=C(c1ccoc1)N1CCC[C@H](Oc2cccnn2)C1` the “% Inhibition” value was -10% and the Z score was 1.14. With `C[C@H](NCC#N)c1ccc(S(C)(=O)=O)c(F)c1` the “% Inhibition” value was 0% and the Z score was 0.04. In the case of `Cc1cc(NCC2(O)CCS(=O)(=O)CC2)ncc1Br`, the “% Inhibition” value is reported as -14% and the Z score is reported as 1.54. `CN(C)c1nccnc1NCC1(CN2CCCC2)CC1` was tested, and the “% Inhibition” value was -7% and the Z score was 1.1. `O=C(CNCc1cccc(Br)c1)NC1CC1` was tested, and the “% Inhibition” value was -25% and the Z score was 2.29. With `Cc1c(NC(=O)Cc2noc3ccccc23)cccc1C(=O)N1CCc2sccc2C1` the “% Inhibition” value was -10% and the Z score was 1.16. In the case of `O=C(Nc1cccc(-c2nc3cc(Cl)ccc3o2)c1)c1cccs1`, the “% Inhibition” value is reported as 11% and the Z score is reported as -1.45. In the case of `CCOc1cc2c(cc1OCC)[C@@H]1CC(=O)N(c3ccc(C)cc3)C(=O)N1CC2`, the “% Inhibition” value is reported as -4% and the Z score is reported as 0.64. For `CCC/C(=C\n1ccnc1)c1ccccc1Cl`, the “% Inhibition” value was -41% and the Z score was 4.75. For `O=C(Nc1ccc2c(c1)C(O)=Nc1cccnc1O2)c1ccc(F)c(Cl)c1`, the “% Inhibition” value was 19% and the Z score was -1.98. For `CCOc1ccc(-c2n[nH]cc2CN2C[C@@H]3CCN(S(C)(=O)=O)C[C@]3(CF)C2)cc1`, the “% Inhibition” value was -5% and the Z score was 0.96. With `Cc1nnc(CN2CCC[C@H]2C(=O)N2CCCCC2)o1` the “% Inhibition” value was 8% and the Z score was -1.16. For `O=c1[nH]c(N2CCCCC2)nc2nccc(-c3ccc4ccccc4c3)c12`, the “% Inhibition” value was -8% and the Z score was 1.12. In the case of `Cc1nccn1[C@@H](C)C(=O)NCc1nccn1C(C)C`, the “% Inhibition” value is reported as 6% and the Z score is reported as -1.12. For `CCNS(=O)(=O)[C@H]1CCN(C(=O)c2ccc(C)s2)C1`, the “% Inhibition” value was -13% and the Z score was 1.31. In the case of `Cc1cccc(-c2noc(CS(=O)(=O)C(C)C(=O)NC3CCCC(C)C3C)n2)c1` (stereo not drawn), the “% Inhibition” value is reported as -1% and the Z score is reported as 0.13. With `CC(CC(=O)N1CC(O)CC1c1ccc(C(F)(F)F)cc1)c1ccccc1C(F)(F)F` (stereo not drawn) the “% Inhibition” value was -3% and the Z score was 0.33. In the case of `O=C(NS(=O)(=O)c1ccc2[nH]nnc2c1)C1CCC2CC2C1` (stereo not drawn), the “% Inhibition” value is reported as -5% and the Z score is reported as 0.53. In the case of `Cn1cccc1CN(C(=O)c1cc2ccccc2[nH]1)C1CC1`, the “% Inhibition” value is reported as -5% and the Z score is reported as 1. In the case of `N#Cc1c(NCCC(=O)NCc2ccccc2)nc2ccccn12`, the “% Inhibition” value is reported as -4% and the Z score is reported as 0.48. `Cc1oc(C(C)C)cc1C(=O)NCC[C@H]1CCCN(C)C1` was tested, and the “% Inhibition” value was -19% and the Z score was 2.44. For `CN(C(=O)C1CCC(C(=O)N(C)c2ccccc2)CC1)c1ccccc1` (stereo not drawn), the “% Inhibition” value was -16% and the Z score was 1.32. With `Cc1noc(-c2c(C)sc(C)c2S(=O)(=O)Nc2ccccc2F)c1C` the “% Inhibition” value was -2% and the Z score was 0.26. With `CC(C)(C)C[C@H]1CCCN1C(=O)c1nnn(C2CCNCC2)c1C(F)F` the “% Inhibition” value was 0% and the Z score was -0.05. For `CC(C)Cc1ccc([C@H](C)C(=O)NC2CC[S+]([O-])CC2)cc1` (stereo partly drawn), the “% Inhibition” value was -4% and the Z score was 0.47. With `Cc1cccc(CN2CCn3nnc(-c4nc(-c5ccccc5)no4)c3C2=O)c1` the “% Inhibition” value was -6% and the Z score was 0.67. In the case of `COc1c[nH]c(C=Cc2cccc(C(=O)O)c2Cl)nc1=O`, the “% Inhibition” value is reported as -5% and the Z score is reported as 0.8. With `C[C@@]1(C(=O)NCc2ccccc2)Cn2nc(-c3ccccc3)cc2C(=O)N1c1ccc2c(c1)OCCO2` the “% Inhibition” value was 52% and the Z score was -8.25. With `COc1nc(CNC(=O)[C@@H]2CCc3ccccc3O2)nc(N(C)C)n1` the “% Inhibition” value was 1% and the Z score was -0.11. For `CS(=O)(=O)N1CCC(C(=O)N(Cc2ccccn2)c2nc3ccc(F)cc3s2)CC1`, the “% Inhibition” value was -12% and the Z score was 2.08. With `COc1ccc(C2CCCN2C(=O)C2CCCO2)cc1OC` (stereo not drawn) the “% Inhibition” value was -3% and the Z score was 0.37. For `Cc1ccc(-n2nc(C(=O)N3CCOCC3)c(=O)n(Cc3ccc(F)cc3)c2=O)cc1`, the “% Inhibition” value was 3% and the Z score was -0.47. In the case of `Cc1cc(C)n(CCN(C)c2nnnn2-c2ccccc2)n1`, the “% Inhibition” value is reported as 3% and the Z score is reported as -0.56. For `O=C(CS(=O)(=O)c1cccc(Br)c1)NC[C@H](n1cccn1)C(F)(F)F`, the “% Inhibition” value was -7% and the Z score was 1.28.
